The supplement of paper PMC12645437, “Orthogonal IMiD-Degron Pairs Induce Selective Protein Degradation in Cells” (ACS Chemical Biology, 2025)
The other results are listed elsewhere or left out.

molecular target: no compound (DMSO); assay: log2 fold change of degron read counts, EGFP-low vs EGFP+ sorted cells; higher = lower degron-EGFP level without compound (poor expression or instability); conditions: compound: DMSO control; 18 h
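Further: jurkat cells carrying a lentiviral library of mutant zinc finger degrons fused to EGFP plus mCherry, mCherry+ cells FACS sorted, degron abundance counted by next-generation sequencing.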

| Sequence | log2 fold change of degron read counts |
| --- | --- |
| FQCDVCGAIFTQKGNLLRHIKL | -1.4 |
| FACEICGAEFTQKGNLLRHIKL | -2.36 |
| FHCPICGAWFTQKGNLLRHIKL | 0.107 |
| LQCPICGFGCTQKGNLLRHIKL | 0.855 |
| LLCEICGFRCTQKGNLLRHIKL | 0.13 |
| FACEICGAGFTQKGNLLRHIKL | -1.04 |
| FECNQCGRDFTQKGNLLRHIKL | -1.03 |
| FWCDVCGAHFTQKGNLLRHIKL | -0.66 |
| FECEVCGALFTQKGNLLRHIKL | -2.78 |
| FACSVCGHYFTQKGNLLRHIKL | -0.375 |
| FGCEICGRGFTQKGNLLRHIKL | -0.672 |
| FQCPICGRAFTQKGNLLRHIKL | 0.308 |
| FSCNQCGHGFTQKGNLLRHIKL | 0.0358 |
| FCCEVCGAGFTQKGNLLRHIKL | -1.03 |
| FGCEICGATFTQKGNLLRHIKL | -1.04 |
| FNCPICGHMFTQKGNLLRHIKL | 0.0712 |

| Sequence | log2 fold change of degron read counts |
| --- | --- |
| FHCDQCGAEFTQKGNLLRHIKL | -2.14 |
| FNCDQCGAVFTQKGNLLRHIKL | -1.56 |
| FICSVCGHRFTQKGNLLRHIKL | -0.703 |
| FACPICGHLFTQKGNLLRHIKL | -0.21 |
| FACPVCGASFTQKGNLLRHIKL | -0.332 |
| FACEICGHCFTQKGNLLRHIKL | -0.864 |
| FWCEICGAGFTQKGNLLRHIKL | -1.02 |
| FYCNQCGHAFTQKGNLLRHIKL | 0.392 |
| FRCNICGAFFTQKGNLLRHIKL | 0.547 |
| LECEICGFGCTQKGNLLRHIKL | -0.407 |
| FACNQCGRMFTQKGNLLRHIKL | 0.167 |
| LVCPICGFFCTQKGNLLRHIKL | 1.92 |
| FQCNVCGADFTQKGNLLRHIKL | -0.756 |
| FECNVCGANFTQKGNLLRHIKL | -1.79 |
| FNCNICGAIFTQKGNLLRHIKL | 0.148 |
| FECEICGATFTQKGNLLRHIKL | -2.43 |
